Measurements: patent US20230391863A1 (published 2023)

How the values were obtained:
human TNF-α [1] = molecular target: T1, human TNF-α (human, UniProt P01375 partial chain); assay: cell-based or functional assay
human Activin A [2] = molecular target: T2, human Activin A (human, UniProt A4D1W7 311-426, Activin A is a disulfide-linked homodimer of two identical inhibin beta A chains. The chain is given once.); assay: cell-based or functional assay
T2 sequence: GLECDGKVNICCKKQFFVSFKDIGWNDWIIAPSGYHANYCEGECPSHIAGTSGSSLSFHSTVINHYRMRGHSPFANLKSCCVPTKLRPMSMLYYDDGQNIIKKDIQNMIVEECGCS

human TNF-α [3] = molecular target: T1, human TNF-α; assay: BLI (Octet RED96), affinity-purified antagonist captured on biosensor, ligand in solution
Procedure: (§1) In this example, the human ligand binding activities of several bifunctional antagonist molecules were measured by biolayer interferometry (BLI) using Octet RED96 (FortéBIO, Pall Corporation, USA). Binding analysis was performed by capturing the polypeptide bifunctional antagonists to biosensors. To measure the rate of association and dissociation, the bifunctional antagonists-captured biosensors were dipped in wells containing different concentrations of ligands (such as TNF-α, Activin A, Activin B, Activin AB, myostatin, and GDF-11) diluted in 1× kinetic buffer for 10 min followed by 10-20 min in 1× kinetic buffer. The bifunctional polypeptide antagonists-captured sensors were also submerged in wells containing 1× kinetic buffer to allow single reference subtraction in order to compensate for natural dissociation of the captured bifunctional antagonists. The binding sensorgrams were collected using the 8-channel detection mode on the biosensor. Data were acquired and analyzed using the FortéBIO data acquisition software v11.1 (FortéBIO, Pall Corporation, USA).

human Activin A [4] = molecular target: T2, human Activin A; assay: as above
Procedure: as §1

T1 sequence (P01375 77-233 limits assumed): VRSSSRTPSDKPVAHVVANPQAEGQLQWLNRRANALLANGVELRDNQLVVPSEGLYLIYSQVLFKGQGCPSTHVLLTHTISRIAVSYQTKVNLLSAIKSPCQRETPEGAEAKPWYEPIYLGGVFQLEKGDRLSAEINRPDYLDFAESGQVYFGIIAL

B1: A305 (SEQ ID NO: 60) (Fc fusion)
chain: LPAQVAFTPYAPEPGSTCRLREYYDQTAQMCCSKCSPGQHAKVFCTKTSDTVCDSCEDSTYTQLWNWVPECLSCGSRCSSDQVETQACTREQNRICTCRPGWYCALSKQEGCRLCAPLRKCRPGFGVARPGTETSDVVCKPCAPGTFSNTTSSTDICRPHQICNVVAIPGNASMDAVCTSTSPTRSMAPGAVHLPQPVSTRSQHTQPTPEPSTAPSTSFLLPMGPSPPAEGSTGDGGGGSGGGGSGGGGS[human IgG1 Fc left out]GGGGSGGGGSGGGGSETRECIYYNANWELERTNQSGLERCEGEQDKRLHCYASWRNSSGTIELVKKGCWLDDFNCYDRQECVATEENPQVYFCCCEGNFCNERFTHLPEAGGPEVTYEPPPTAPT
- IC50; neutralisation of human TNF-α, NF-κB luciferase reporter cells (K536-NF-κB-luc), RLU against A305 (nM Log) (human TNF-α [1]): 0.1 nM
- IC50; neutralisation of human Activin A (2 nM), Smad2/3 luciferase reporter cells (CAGA-luc), RLU against A305 (nM Log) (human Activin A [2]): 3.7 nM
- Kd (human TNF-α [3]): ~100 pM
- Kd (human Activin A [4]): ~140 pM

B2: A711 (SEQ ID NO: 49) (Fc fusion)
chain: IYPSGVIGLVPHLGDREKRDSVCPQGKYIHPQNNSICCTKCHKGTYLYNDCPGPGQDTDCRECESGSFTASENHLRHCLSCSKCRKEMGQVEISSCTVDRDTVCGCRKNQYRHYWSENLFQCFNCSLCLNGTVHLSCQEKQNTVCTCHAGFFLRENECVSCSNCKKSLECTKLCLPQIENVKGTEDSGTTGGGGSGGGGSGGGGS[human IgG1 Fc left out]GGGGSGGGGSGGGGSETRECIYYNANWELERTNQSGLERCEGEQDKRLHCYASWRNSSGTIELVKKGCWLDDFNCYDRQECVATEENPQVYFCCCEGNFCNERFTHLPEAGGPEVTYEPPPTAPT
- IC50; neutralisation of human TNF-α, NF-κB luciferase reporter cells (K536-NF-κB-luc), RLU against A711 (nM Log) (human TNF-α [1]): 0.1 nM
- IC50; neutralisation of human Activin A (2 nM), Smad2/3 luciferase reporter cells (CAGA-luc), RLU against A711 (nM Log) (human Activin A [2]): 4.1 nM
- Kd (human TNF-α [3]): ~100 pM
- Kd (human Activin A [4]): ~130 pM
